# Out of some 150,000 compounds screened, about 540 (0.36%) showed an effect of 50% or more. The list shows a part of the results.
# Test system: Plasmodium falciparum
# Test: Primary screen in NF54 nanoGlo assay, in single point, at 2uM, 72h; a lower Z score goes with more inhibition
# Format: functional, Erythrocyte
# Settings: timepoint 72 hour
Compound,% Inhibition,Z score
C=CCCS(=O)(=O)N1CCN(S(=O)(=O)CCC=C)[C@@H](C)C1,1%,-0.09
COCc1noc(CCNC(=O)Nc2cc(-n3cnnn3)cc(C)c2C)n1,-25%,2.19
CCN(CC(C)C)C(=O)c1ncoc1C(C)C,6%,-0.79
C[C@@H](C(=O)N1CCC(c2ncon2)CC1)n1cc(Cl)cn1,10%,-1.35
CCN(CC)c1ccc(C(c2c[nH]c3ccccc23)c2c[nH]c3ccccc23)c(OC)c1,-40%,4.74
CC[C@H](Nc1ccc(C(=O)NCc2noc(C(C)C)n2)cn1)c1ncnn1C,-11%,1.36
Cc1sc(NC(=O)c2scnc2C2CC2)nc1-c1c(F)cc(F)cc1F,-6%,0.68
CC[C@H]1CN(CC)CCN1C(=O)c1ccn(C(C)C)n1,-16%,2.03
Cc1cnc(NC(=O)CCC(=O)Nc2nc(C(=O)O)c(C(C)C)s2)s1,-13%,1.66
CC1(C)NC(=O)N(CCNC(c2ccccc2)c2ccccc2)C1=O,-5%,0.78
C#Cc1cccc(N(Cc2nc(N)nc(N(C)C)n2)C(C)C)c1,1%,-0.09
Cc1cc(C)n(CC(=O)N2CCC[C@@](F)(C(=O)N3CCOCC3)C2)n1,-11%,0.94
COc1cccc(CNC(=O)c2cc(NS(C)(=O)=O)cc3nc(C)n(Cc4ccccc4)c23)c1,-5%,0.8
Cn1cc(-c2cc3n(n2)CCC(=O)N3CC(=O)Nc2cccc(F)c2)c2ccccc21,3%,-0.5
O=c1[nH]nc2n1CCN(Cc1ccncc1)CC2,-11%,1.51
CCC(CC)C(=O)N(C)c1ccc(-c2ccccc2)nn1,-9%,1.68
NS(=O)(=O)CC1CCN(Cc2cc3ccccc3[nH]c2=O)CC1,1%,-0.12
O=C(NCCS(=O)(=O)NCc1cccs1)c1ccccc1,-6%,0.82
COc1cc(-c2cccc(C(=O)NC3CCOCC3)c2)cc(OC)c1OC,-8%,1.53
Clc1ccc(-c2nc3cc(-n4cnnc4)ccc3o2)cc1,-17%,2.38
O=C(c1ccc(-c2nc(C3CC3)no2)cc1)N1CCCCCC1,26%,-2.92

Compound,% Inhibition,Z score
CCC(NC(=O)N1CC(C)OC2(CCCCC2)C1)C(F)F (stereo not drawn),4%,-0.8
CC1(C2CCN(C(=O)c3ccc4[nH]cnc4c3)CC2)OCCO1,-11%,1.55
CCn1nc(C)c2ccn(CC(=O)NCc3ccc4c(c3)OCO4)c(=O)c21,13%,-1.28
O=C(Cn1ccc(=O)cc1)NCCc1csc(-c2ncccn2)n1,-10%,1.42
Cc1nn(CC(=O)N(Cc2ccccn2)Cc2ccco2)c(C)c1C,-22%,3.24
COc1ccc(C2(NC(=O)Cn3nccn3)CCCCCC2)cc1,1%,-0.08
Cc1cc2[nH]c(=O)[nH]c2cc1S(=O)(=O)NC1CCCCC1,-5%,0.69
O=C(CCc1conc1-c1ccc(F)cc1)NC1CCCCC1,-14%,1.91
COc1ccc(Nc2nn(-c3ccc(OC(F)(F)F)cc3)nc2C(C)=O)c2ncccc12,-13%,1.85
Cc1nc(O)cc([C@H]2CCCN(C(=O)COCC(F)(F)C(F)F)C2)n1,-15%,1.51
Cn1nccc1[C@@H]1CCCN1Cc1nccc(N)n1,-1%,0.11
N#Cc1cnc(OCC2CC(F)(F)C2)c(Cl)c1,-9%,1.22
CC1CC(C)CN(Cc2csc(NC(=O)Cc3cccc(F)c3)n2)C1 (stereo not drawn),-6%,1.12
CN(c1ccccc1NC(=O)Cc1ccon1)C1CCCC1,-12%,1.89
CCN(c1ccccc1)S(=O)(=O)c1cc(-c2[nH]nc(C)c2C)sc1C,-18%,2.08
CC[C@H](C)N(Cc1ccsc1)C(=O)c1cc(Cl)cn1C,-9%,1.43
CCNc1ccc(Nc2ncnc3c2nnn3C)cn1,-10%,1.83
Cc1cc(N[C@@H](C)c2cnn(C)c2)nc(N)n1,-2%,0.27
Cc1ccc(Cn2ncc3c2NC(=O)C[C@]32C(=O)N(C)c3ccc(C)cc32)cc1,-9%,1.2
COCC(C)(O)C(=O)N1CCCC(n2cnc3ccccc32)C1 (stereo not drawn),-14%,1.28
CCc1nnc(NC(=O)Cc2c(C)noc2C)s1,-2%,0.29

Compound,% Inhibition,Z score
CC(NC(=O)C1CC(c2ccc(F)cc2)CN(Cc2ccccc2Cl)C1)c1ccccc1 (stereo not drawn),4%,-0.56
Cn1cc(-c2nn(Cc3ccc(Cl)cc3Cl)c(-c3cnn(C)c3)c2Cl)cn1,3%,-0.51
CC(C)(C)[C@@H](C#N)NS(=O)(=O)c1cccc(Cl)c1,-2%,0.22
O=C(NC[C@@H](O)CN1CCc2ccccc2C1)C1CCCOC1 (stereo partly drawn),2%,-0.19
Cc1ccc(Br)c(F)c1C#N,-8%,0.74
COc1ccc(CC(=O)Nc2nc(C)nn2-c2ccc(C#N)cc2)cc1,-7%,1.01
O[C@@H](Cc1nc2ccccc2o1)c1ccc(C(F)(F)F)cc1,-9%,1.04
O=C(c1coc(CN(CCc2c[nH]c3ccccc23)Cc2ccc(C(F)(F)F)cc2)n1)N1CCCC1,-14%,2.25
CC(C)n1ncnc1CNS(=O)(=O)CC12CCC(CC1)C2,3%,-0.42
O=C(c1ccc2[nH]c3c(c2c1)CCCC3)N1CCCCC1,3%,-0.29
Cc1cc2ncn(Cc3cc(C(=O)N4CCC[C@H]4CO)n[nH]3)c2cc1C,-1%,0.15
COCCn1nnnc1[C@]1(N2CCCC2)CCN(C(=O)c2cc3ccccc3[nH]2)C1,-6%,0.72
CCCc1cnc(NCc2c(C)nn(C)c2OC)s1,-6%,1.13
COC[C@@](C)(C#N)NC(=O)c1ccc(Br)cc1O,-2%,0.25
Cc1cc(C(=O)NC[C@H]2COC3(CCC(C)CC3)O2)on1 (stereo partly drawn),-9%,1.14
Cc1nc2c(NS(=O)(=O)c3cnn([C@H]4CCOC4)c3)cccc2o1,3%,-0.56
Cc1nc2cc(-c3noc(CNC(=O)Cc4ccccc4)n3)ccc2o1,-9%,0.91
CCn1c(CCc2ccccc2NS(=O)(=O)c2ccc(OC)c(Cl)c2)nc2ccccc21,-13%,1.57
COc1ccc(-c2ccc(N3CCN(C(=O)CN(C[C@H]4CCCO4)C(=O)C4CCC4)CC3)nn2)c(OC)c1,-6%,0.57
COc1cccc(CN2CCC[C@@]3(CCN(C(=O)c4cc(C)ccc4O)C3)C2)c1,-7%,0.86
Cc1cc(=O)n(Cc2ccccc2F)c2cc(OCC(=O)NCCc3ccccc3)ccc12,-16%,2.28

Compound,% Inhibition,Z score
Cn1cc(CNc2ccc(C(N)=O)cc2)c(C2CCCCC2)n1,-6%,1.25
CC(=O)Nn1ccc2nc(N3CCOCC3)ncc2c1=O,48%,-5.74
CCN(CCS(C)(=O)=O)CC1(CC#N)CC1,-4%,0.6
COCc1nc(NCc2nc(-c3ccccc3F)no2)cc([C@H]2C[C@H](N)C2)n1,-5%,0.66
Cn1nccc1CCNC(=O)c1nc(=O)[nH]c2ccccc12,-2%,0.19
O=S(=O)(c1cccs1)N1CC[C@H](CNCc2cnc(C3CC3)o2)C1,0%,0
Cc1csc(-c2cn(CC(=O)NCc3ccc(C)c(C)c3)cn2)n1,-3%,0.37
Cc1cccc(O[C@@H](C)C(=O)Nc2nc(-c3ccccn3)cs2)c1,32%,-3.22
CCOc1ccc(-c2ccc(N(C)C)nc2)nn1,-13%,2.56
COC(=O)C[C@H]1CCCN1C(=O)[C@]1(c2ccccc2)C[C@H](O)C1,8%,-1.18
Cc1ccc2sc(N(CCCN(C)C)C(=O)c3ccc(S(=O)(=O)N4CCCCCC4)cc3)nc2c1C,22%,-2.8
CC(=O)c1cc(CN2CC[C@@]3(C2)CN(C)C(=O)O3)n(C)c1,-2%,0.47
O=C(Nc1cc(-c2nc3ccccc3s2)c(Cl)cc1Cl)c1cc2ccccc2o1,-6%,0.79
Cc1oc2ncnc(NC(=O)[C@@H]3COCCO3)c2c1C,-7%,0.96
CCCS(=O)(=O)N1CCn2nc(-c3nc4cc(OC)ccc4[nH]3)cc2C1,-3%,0.46
C[C@H]1CCCCN1CCCNC(=O)c1cc2n(n1)CCN(Cc1cccc(Cl)c1)C2=O,-7%,0.83
Cc1cc(CC(=O)NCCc2noc(C3CCC3)n2)on1,-7%,1.31
CCCN(CCC(=O)N1CCNCC1)S(=O)(=O)c1c(C)cc(C)cc1C,-6%,1.15
CC(C)CC(=O)N1C[C@@H](CO)[C@H](NC(=O)c2ccccc2)C1,-12%,2.13
Cc1ccn(CCC(=O)N2CCN(C)C[C@@H]2c2ccccc2)n1,6%,-1.11
C[C@]1(c2ccc3c(c2)OCCO3)NC(=O)NC1=O,-2%,0.17
